Experimental data published in the supplement of paper PMC10126150.
Values marked as one replicate rest on one cluster of the flow cell; about a third of the high ones do not repeat.

Tested on: ATP
Assay: switch fluorescence ratio, 500 uM ATP over buffer (Cy3 cluster intensity, sum of 5 cycles each) (fold (ratio)); higher = stronger signal-on switching upon ATP binding; sequences stand for … in TCGTCGGCAGCGTCAGATGTGTATAAGAGACAGTTTTTTTTTTTTTTTTTTTTTTTTT…TC
Details: aptamer strand: ATP DNA aptamer (quencher-CACCTGGGGGAGTATTGCGGAGGAAGG + anchor), 100 nM annealed; ATP concentration: 500 uM; one replicate
Procedure, shortened: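 The quencher-labelled ATP aptamer, at 100 nM, was annealed to Cy3-labelled switching-strand clusters on a modified Illumina MiSeq flow-cell. The clusters were imaged in selection buffer, then after 15 min with 500 uM ATP at 22 °C, and this buffer/ATP cycle ran five times with NaOH stripping and re-annealing between runs. Per-cluster fluorescence ratios, summed target-cycle over summed buffer-cycle Cy3 intensity, were averaged per switch-domain sequence. Clusters outside 100-1000 RFU were excluded.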
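Also: ATP exposure 15 min at 22 °C before imaging.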

Row | Sequence | switch fluorescence ratio
1 | TTCGCGGAC | 3.97
2 | GTTGCATTGT | 1.1
3 | ATGGCGGTGA | 0.964
4 | TGCCAACGGG | 0.965
5 | AACCTTTGGC | 1
6 | TGGGTGGGTT | 0.963
7 | TGGTATTTCT | 0.923
8 | ATTAGAAATA | 0.997
9 | AGACCTGAGC | 1.1
10 | GATGGTTCGG | 1.01
11 | CAAACTGGGA | 0.998
12 | GTGCCCTCAG | 0.983
13 | CCATTTCCT | 1
14 | TTGTTGGCTA | 1
15 | TATGCCGCAG | 1.04
16 | GGAACCAAAT | 0.998
17 | GGCTTATAAG | 0.952
18 | CTCAACGGTA | 1.06
19 | TGGATCTTG | 1.01
20 | TTGGGTGACG | 0.942
21 | TGAAATTGAT | 1.01
22 | CCCTCTGGGG | 1.07
23 | ACTCTTTTG | 1.03

Row | Sequence | switch fluorescence ratio
24 | CTCGCTTCG | 1.01
25 | AACGATCTGG | 1
26 | TTATCCAAAT | 1.04
27 | GCTCGACTAG | 1.03
28 | GTGCATGAT | 0.999
29 | AAACATTGTT | 0.971
30 | GCAGGGTTGC | 1.02
31 | ATAACCTAGT | 0.974
32 | CGGTGAGTT | 1.27
33 | CTTAGAGTCT | 1.12
34 | AAGTAGGCGA | 0.99
35 | TAAAGGTGC | 1.2
36 | GGGGGTGCAA | 1.03
37 | GAATTCAGAT | 0.972
38 | GTGGCACTTT | 0.976
39 | TGGGTGAAGT | 0.99
40 | CCGATGTCAA | 3.88
41 | AGCGCCCGAG | 0.997
42 | GGAACTCGTG | 0.982
43 | ATCATAATCG | 1.06
44 | GGAGATATAA | 0.998
45 | ATCGTGAACG | 1.03
46 | CGTGGTTCTA | 0.959

Row | Sequence | switch fluorescence ratio
47 | AACGAACGTG | 1.17
48 | AGTCAGGCCA | 1.03
49 | AGGCGTAAAC | 1.07
50 | AAGTACATC | 1.28
51 | AAGTGCAGGT | 0.969
52 | CAAGTACCGC | 1.23
53 | TATCTGCGGT | 1.02
54 | AGATAACACC | 1.03
55 | TCGCGGTCAT | 1.01
56 | TTGTTGTTC | 0.972
57 | TTTTCCAGAA | 1.02
58 | TAGTCGACAG | 1
59 | TGACGTGGGT | 1.01
60 | TAAGTAATCC | 1.01
61 | GCTGTCTTTG | 0.975
62 | CGGTGTTCAC | 0.976
63 | AATATGGGCT | 1
64 | AGTAGATATT | 0.98
65 | TCACCTTTCT | 1.27
66 | CGTTGTAAA | 0.997
67 | AACTAGTTGT | 1.02
68 | TTAGCACACT | 1.12
69 | GCGCGGCTGA | 0.962

Row | Sequence | switch fluorescence ratio
70 | ATCATATAGA | 0.999
71 | CTGGGCGTAT | 1.06
72 | GGTGTGCA | 0.954
73 | AAATTTAACT | 1
74 | TCTGTTTTTA | 1
75 | AGTCGCTAGC | 1.01
76 | TTACACTTCT | 1.05
77 | CGTTTCAGAC | 1.27
78 | AGTTTGGGAC | 0.979
79 | ACAGGCGCCG | 1.09
80 | GCCTAAGGTT | 0.98
81 | GATCGGCACG | 1.02
82 | GGGCTCAATA | 0.957
83 | ATCGCCCTCG | 0.993
84 | AGGCTAAGCT | 1.04
85 | GCCTATCCAG | 1.03
86 | TTTTATCGGA | 0.996
87 | GGCACATTTC | 1.02
88 | CAGTTCAAA | 0.967
89 | GCTGACGATA | 1.12
90 | ATCCCCTGCC | 1.43
91 | CGGTTGTTAT | 0.973
92 | TCTGGACTTT | 1

Row | Sequence | switch fluorescence ratio
93 | GTATTCCGAG | 1.12
94 | CCGATAATGA | 1.4
95 | CCGGGGAGAA | 1.17
96 | TTTAAAGGTC | 0.982
97 | GTGTGTACCG | 0.981
98 | CCAACCGGAT | 1.05
99 | GTTTTTGGCA | 0.982
100 | TATATAACCA | 0.968
101 | GTGCTGGGAT | 1.04
102 | TCAATGCACT | 1.04
103 | CTGAAGAGCG | 1.03
104 | TTTAGATTCC | 1.06
105 | AAAGTGTGGC | 1.05
106 | TCGATGAGCT | 1.03
107 | CCGGTTTGCT | 1.05
108 | CGGAAGGC | 2.13
109 | CTGAAGAAT | 0.998
110 | ACTGAAAACT | 1
111 | ACTTAGTGTC | 1.03
112 | TCAGGAAAA | 1.01
113 | AACGAGCATT | 1.14
114 | AAAGTAGCGG | 0.948
115 | GTCCTTCCCA | 1.27

Row | Sequence | switch fluorescence ratio
116 | GCTTGGGTTT | 1.01
117 | AAATGTCGGG | 0.989
118 | TATCCCAGTT | 1.08
119 | TCTCGGATGA | 1.04
120 | CTTTGCTGCA | 0.978
121 | GTATATGGGG | 0.936
122 | AAGGTGTCCG | 0.975
123 | ACATCACCCT | 1.41
124 | GTCTAGAGAG | 0.983
125 | ATACTTCTTC | 1.06
126 | CACCTCGATC | 1.14
127 | CTACTATTTG | 1.03
128 | TCGCGCCGAT | 1.01
129 | CATTGTGTCA | 0.971
130 | CGAAGGTACA | 1.08
131 | TCCATATGGA | 0.928
132 | CAATATCGGG | 0.982
133 | TTGGCTATGG | 0.937
134 | ACATTGGGGA | 0.991
135 | AGGTCGGGGT | 0.992
136 | ATGAAAGGTA | 1.03
137 | TATGTGAAAT | 0.991
138 | GGACCATTGA | 0.987

Row | Sequence | switch fluorescence ratio
139 | AATTGCCCTG | 0.98
140 | AATGAAGCTA | 1.01
141 | AGATTTCTCA | 1.03
142 | CCAGAATACG | 1.41
143 | TTCTGTGGTT | 1.03
144 | ATAAAGGCG | 1.16
145 | CGGTCAATAG | 2.9
146 | ACTTCTATA | 1.08
147 | GTTGGAATAT | 1.03
148 | AATGTCCGAC | 1.08
149 | CGAGCGGGCT | 0.993
150 | GAGCTACAAT | 1.02
151 | ACGTCAATTA | 1.34
152 | GAGTACAGG | 1.03
153 | TGGAGCGGCT | 0.953
154 | GCAGTCTAAT | 0.99
155 | ATAACTCAAT | 0.99
156 | ACAGAATCGC | 1.02
157 | TCTGTTTCG | 1
158 | ACGAGTCTGA | 1.07
